# Results as given in the RNAGym collection of RNA variant scans (doi:10.7554/elife.90254).
# The source gives no read counts; variants with many changes may rest on few reads.
# B1: LINE1-mini (parent)
# chain: GGCAGAGCUCAACACAGCGUGGCAAAGUGGCUGUGGCUAGACUGCC
# Variants of: B1
# Test: self-cleavage, relative activity (ratio to wild type); higher = more cleavage; in vitro, sequencing; the parent is a self-cleaving ribozyme
row,Variant,self-cleavage
1,C3U C15G A25U G44A,0.01
2,U9A C10A C15G,0
3,G27A U34A C45U,0.04
4,C3G U9C C10G C13G G17A,0.02
5,U9G A16U U34C,0.02
6,G17A U32G U38C,0.07
7,C13A U34C U38C,0.06
8,G5C A6U G33U,0.27
9,C18A G19U G40U U43G,0.18
10,G2A G5U A16C U20G U32G U34A,0.04
11,C15U U20C G33C,0.11
12,A11U C13A G40U,0.01
13,A16U C31A G33C,0
14,G19U A24U A26C A39U,0.18
15,C23A A24C C46U,0.29
16,G2C G7A A16G U38C,0.02
17,A4G C10G A14U,0.01
18,C10G G17U G29A G33U,0.03
19,C10A G33A G40U,0.02
20,G19U G27A G33C G44A,0.05
21,G1C G5A C8G G35U A39G U43A,0.02
22,C8A U9G A39G C45U,0.04
23,G17U C23G G33A A39C,0.03
24,G7A U9A U38A C45U,0.11

row,Variant,self-cleavage
1,C10U G19U A24C U28C,0.22
2,C8A C23G A25C A26C G33U,0.04
3,A12U C15A A25U,0.03
4,A12C A14G G17A G36U C37A,0.02
5,C3A A12U C13U G22A,0.07
6,A6U G27U C42A,0.18
7,C13U C23G G40C,0.15
8,A4G C42G C46G,0.03
9,C8A C10G A12G G21U G36U A41U G44C C46A,0
10,G17U G22A G36A C37G,0.02
11,C8A U9C A25U G30A G36A U38C,0.06
12,G7U G27A C45G,0.39
13,A11U G19C G35U,0
14,A6U C37U C42G,0.41
15,A14C G19C G27A G29U G44U,0.01
16,G7A C31G U32G U34A C46G,0.06
17,C8G A26U G35A C46A,0.08
18,A4G G17C G21A C37G,0.07
19,G1U G29C G36C C37A A39C,0.01
20,A11G G22A A41G,0.03
21,G1C C13U A14U C23A G27A G33U,0.02
22,A6U U32C U34C U38G G44C,0
23,C3G G5A C45U,0.11
24,C10A A16C A41C,0

row,Variant,self-cleavage
1,C8G A16G G29A C42U,0.07
2,C15G G17C A26G U28C A39G G44C C46G,0
3,A16C C18U C31G U34A G35C C42A,0.02
4,G2C C8U G33U G40C,0.06
5,G2C C15G C31U,0.07
6,A16G C18U A26C A39U,0.15
7,C3A A6C C18A G19C G35A G36C,0.1
8,C8U C23A U38A,0.11
9,C15A U20C A25U,0.05
10,C13A C18A U20G G22C C23A A26U G27U U28G G30C,0.01
11,C3U A4G G19C A26C G29U A41U C45U,0.04
12,U28C C42U G44U,0.1
13,C10G C23A G29C C31A U32C,0.01
14,A12U C13A A14C,0.13
15,C3G A6G C13U,0.62
16,C31A U32G C42U U43A C45G,0.07
17,C8U C10U A41C C42A,0.04
18,G5A U9G A39U G40C,0.03
19,G22C A24G G27A U34A,0.11
20,G17U G22U A26C C42U,0.09
21,G5U A12U G22C,0.04
22,G19U G22C C31U A41G,0.16
23,C8U A26C G27C,0.2
24,G7C G21A C37A,0.2

row,Variant,self-cleavage
1,G17C G19A G21C G33A,0.11
2,C10A A26G U28C U34A C37U,0.01
3,G1A G17A G21A G33U G35C,0.04
4,A14U C18G G30C C45U,0.43
5,C13A G19U G21A,0.21
6,A4G C15A C18U G29C C37A G40C C46G,0.08
7,G1U U34A U43G,0.01
8,C13G G17A U28A,0.06
9,C3A C18G G21C G36A,0.31
10,A4C G17U A39C C46A,0.06
11,G2C G19U C23G C31G,0.08
12,A6G G22U U38C,0.04
13,G1U U28G A41U C45U,0.41
14,G21U A25U U34G,0.13
15,U9G A26C U34C U38A,0.04
16,U9G A11G G33U U34G,0.02
17,C15U G19C A25U G44A,0.09
18,A11C C13U A14G C18A U20G U38G,0.02
19,A4U C15G G19A U43C G44A,0
20,G1U A16G A41G,0.06
21,A12C C13A G30U U32C,0.05
22,C13G G19U G27C,0.02
23,G7C G21U G36C,0.04
24,G2A C15A C18G C23U,0.08

row,Variant,self-cleavage
1,C10G U20A G22U,0.06
2,G5A U20A U38C G44U C45A,0
3,G1A C3U U20A C37U C46A,0.21
4,G2U C3U A4C C8U G17A,0.28
5,C23A G30U U32C G35C,0.02
6,C10A G17U G19C G21U,0.43
7,C10A A11U C18A G27U,0
8,G5U C10G G30A A41U,0.02
9,A12U G33C C46A,0.02
10,A12U A24U U38C A39C,0.09
11,A24C U28C G40A,0.01
12,G7C C13U G44U,0.04
13,C3G C18A G30A G36U,0.53
14,C15U C18U U38G,0.03
15,U20G U34C C45U,0.14
16,A6U G19A G35C C42A,0.16
17,G19U A26U C31U,0.3
18,G1U A4C A11C,0.01
19,G5A C31A G35C,0.05
20,G1C U9G C10G C46A,0
21,C10A C15G A24U C31U,0.01
22,C8U U9C C46A,0.16
23,C10G A11G C42G,0
24,A14C A16U G40C G44C,0.03

row,Variant,self-cleavage
1,G2C U20G C31G U32C C46U,0.03
2,C8A U9G A14U G29U C42A,0.23
3,G1A G2A G5U A6C C23A,0.1
4,C10A A11U U20G A26G C45G,0
5,A4G G5A G7A G17C,0.14
6,A4C C18U A25U U28A C37U,0.04
7,G1A C8G G17U U32G U38C G44A C46G,0.15
8,C3U G5U U38G C45G,0.07
9,C8U C18U G35U G40A,0.65
10,U9A C18U U20C G21A U28C,0.04
11,A4G A25G A41U,0.03
12,C3A A11U A12G,0.03
13,C10G A11G G22C U32A G36U A41U,0
14,G1U G17U C42U,0.09
15,A16U G19A A24C G36U,0.06
16,A6G G17C G19A C31A A39U,0.01
17,C3U U9C C15G G17C G21C G27C G29A C42G,0.01
18,A12C U20G A26G,0.16
19,G5C U32G C42A,0.21
20,G19U U34A C37A,0.04
21,G1A A14U U20A A25G G30C U32C,0.07
22,G30A U34G G44C C46U,0.01
23,G2U G17C G35U,0.06
24,G1U G22C G35U,0.09

row,Variant,self-cleavage
1,A6C C23U A25G G35A G44A,0.05
2,C15G A16G C18U,0.06
3,G30C U38A A39U G40C,0.09
4,G2U G19C G21C G44C,0.03
5,G2U G7C A14C,0.02
6,C23A U38C C42G,0.03
7,C10U C15A C45U,0.05
8,U32A U34C G36A,0.01
9,A12U C13A G17A C37A A39U U43A,0.02
10,A14U G19U C42U,0.15
11,U9C C15U A25G,0.06
12,A4G G5U A24G,0.24
13,C18G G33C G35U,0.03
14,A6G G17U U20C C23U G27A G30A,0.14
15,C3U C10U A14C G30A C42U C45G,0.04
16,A6U G21U U38C,0.39
17,G5U U9A A11C G21C,0.06
18,G5C A11U G21C,0.03
19,G17C A24G G27A U28C,0.59
20,U28G C31U G36U C42A,0.09
21,G2U C3A G22U G29U,0.91
22,A6G A16G G30U,0.01
23,C13U U32G C37A,0
